# From PubChem BioAssay AID1508642 (National Center for Advancing Translational Sciences (NCATS), 2021)
# About 200 (0.47%) of roughly 43,000 compounds were called active. Not shown: some 12% with an inconclusive outcome. Calls follow the shape of the dose curve; as a rule, active = well fitted cell-killing curve with a large enough effect; inconclusive = small, poorly fitted or top-dose-only effect, or effect the other way; inactive = flat fitted curve, though single readings scatter. The list shows a part of the results.
# Test: Cell viability qHTS assay in S16 Pmp22-F2sN cells; also: nearly all actives have a fitted effect of over 65% in size
# Details: S16 Pmp22-F2sN Schwann cells viability, CellTiter-Glo, 24 h; series mostly up to 57.5 µM; activity change, negative = cytotoxicity: at the top concentration
# How it was run: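 S16 Pmp22-F2sN Schwann cells (500-1,000/well) in phenol-red-free DMEM with 10% FBS received 23 nL compound by pin tool for 24 h at 37 °C. Viability was then read as CellTiter-Glo luminescence after 15 min at room temperature.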
# % is scaled to controls: 0 for no effect and ±100 for the full control effect.
row,SMILES,"activity change, negative = cytotoxicity"
1,Cc1cccc(NC(=O)N2CC=C(c3c[nH]c4ccccc34)CC2)c1C,inactive: -7.24%
2,CCN(CC)C(=O)C1CCCN(c2ncnc3c2c(-c2ccccc2)cn3-c2cccc(C)c2)C1 (stereo unspecified),inactive: -29.2%
3,O=c1c2nncn2ccn1-c1ccc(F)c(F)c1,inactive: -3.11%
4,O=C(c1cc2cc3ccc(Cl)cc3nc2o1)N1CCN(c2cccc(Cl)c2)CC1,inactive: -4.1%
5,O=C(CN1C(=O)CSc2ccc(S(=O)(=O)N3CCCC3)cc21)NCc1ccc(F)cc1Cl,inactive: 11.3%
6,Cc1ccc(CNC(=O)CSCc2nc(-c3cccc(C)c3)oc2C)cc1,inactive: 4.66%
7,Cc1cn2c(=O)c(S(=O)(=O)NCc3ccc(F)cc3)c(C)nc2s1,inactive: 2.46%
8,CCC(NC(=O)Nc1cccc(C)c1)c1c(-n2cccc2)sc2c1CCN(C)C2 (stereo unspecified),inactive: -1.04%
9,O=C(CCC1N=C2c3ccccc3N=C(SCC(=O)NCCc3ccccc3)N2C1=O)NCc1ccc(F)cc1 (stereo unspecified),inactive: 8.25%
10,O=C(NCc1ccccc1Cl)c1ccc(-n2cnc3cccnc32)cc1,inactive: 6.27%
11,Cn1c(/C(C#N)=C/c2ccc(C(F)(F)F)cc2)nc2ccccc21,inactive: -0.44%
12,CCOc1ccccc1NC(=O)Cn1nc(N2CCN(c3ccccc3)CC2)ccc1=O,inactive: -11.2%
13,COc1ccccc1CNC(=O)CSc1cc(C)[nH]c(=O)n1,inactive: 3.08%
14,CCCN(CCC)C(=O)Cn1c(=O)n(-c2ccc(Cl)c(Cl)c2)c(=O)c2c(C)c(C(=O)N(C)C)sc21,inactive: 0.136%
15,CCOc1ccc(OCC)c(NC(=O)C2CCCN(S(=O)(=O)c3ccc(C)cc3)C2)c1 (stereo unspecified),inactive: 1.05%
16,CCOc1ccc(-c2nnc(SCC(=O)N(CC)c3cccc(C)c3)o2)cc1,inactive: -22.3%
17,O=C(Cn1c(=O)n(-c2ccccc2Cl)c(=O)c2sc3ccccc3c21)NC1CCCC1,inactive: 2.73%
18,CCc1ccccc1N(CC)C(=O)Cn1nc(Cc2ccncc2)c2ccccc2c1=O,inactive: 14.6%
19,Cc1ccc(-n2cnc3cc(C(=O)NCCC4=CCCCC4)ccc32)cc1Cl,inactive: -27.4%
20,COc1ccc(CNC(=O)C(=O)NCC(c2cccs2)S(=O)(=O)c2cccs2)cc1 (stereo unspecified),inactive: 16.6%
21,O=C(CCc1nc(-c2cccs2)no1)Nc1ccc([N+](=O)[O-])cc1,inactive: 2.08%
22,Cc1ccc(OCC(=O)Nc2cccc3ccc(C)nc23)c(C)c1,inactive: -9.21%
23,Cc1cccc(NC(=O)COc2ccc3oc4c(c3c2)CCCC4)c1,inactive: -0.504%
24,CCOc1ccc2nc(N3CCCC(C(=O)NCCc4ccc(C)cc4)C3)sc2c1 (stereo unspecified),inactive: 2.7%

row,SMILES,"activity change, negative = cytotoxicity"
1,Cc1ccc(NC(=O)CSc2nc3ccccc3n2CC(=O)N(C)C2CCCCC2)cc1C,inactive: -3.01%
2,CC(C(=O)Nc1ccccc1)n1nnc2sc3c(c2c1=O)CCCC3 (stereo unspecified),inactive: 11%
3,Cc1ccccc1C(=O)Nc1ccccc1-c1nc(-c2ccccc2)no1,inactive: 1.8%
4,CCc1nc2nc(C)c(NS(=O)(=O)c3ccc(F)c(C)c3)c(=O)n2[nH]1,inactive: 3.97%
5,Cc1cc(C(=O)NCc2ccccc2)c2c(C)nn(-c3cccc(Cl)c3C)c2n1,inactive: 4.54%
6,Cc1cccc(Cn2c(=O)n(Cc3ccccc3)c(=O)c3sc4ccccc4c32)c1,inactive: 0.454%
7,CCCCn1c(CNC(=O)C23CC4CC(CC(C4)C2)C3)nnc1SCC(=O)Nc1ccc(F)cc1,inactive: -0.979%
8,Cc1cccc(NC(=O)Nc2nnc(N3CCCC3)s2)c1,inactive: 2.21%
9,CCOc1ccccc1NC(=O)CCc1c(C)nc2cc(-c3ccccc3)nn2c1C,inactive: 3.02%
10,CC(C)C(=O)Nc1cccc(C(=O)Nc2nnc(C(F)(F)F)s2)c1,inactive: 4.07%
11,COc1cccc(CNC(=O)c2ccc3c(c2)nc2n3CCC(C)C2)c1 (stereo unspecified),inactive: 14.3%
12,COc1ccc(-n2nc(-c3ccc(C)cc3)c3cnc4cc(F)c(F)cc4c32)cc1,inactive: 11.1%
13,Cc1ccc(NC(=O)Cn2nc(-c3ccccc3)nc(Cc3ccccc3)c2=O)cc1,inactive: -1.75%
14,CCCN(CCC)C(=O)c1nn(C)c2c1CSc1ccccc1-2,inactive: -3.48%
15,CCOCCCn1c(=N)c(C(=O)NCc2ccccc2)cc2c(=O)n3ccccc3nc21,inactive: -0.0596%
16,COc1cccc(NC(=O)Cn2c(=O)n(CCc3cccc(C)c3)c(=O)c3ccccc32)c1,inactive: 23.5%
17,Cc1cccc(NC(=O)c2c(NC(=O)c3ccco3)sc3c2CCC(C)C3)c1 (stereo unspecified),inactive: -1.2%
18,CC1=C(C(=O)Nc2cccnc2)C(c2ccccc2Cl)n2nc(-c3ccccc3)nc2N1 (stereo unspecified),inactive: 1.07%
19,Cc1cc(NC(=O)CSc2ncc(C(=O)Nc3ccc(C)c(C)c3)c(=O)n2C)no1,inactive: -0.182%
20,Cc1ccc(NC(=O)CCSc2nc(-c3ccc4c(c3)OCO4)cc(C(F)(F)F)n2)c(C)c1,inactive: 5.61%
21,Cc1cc(C)c2oc(-c3cccc(NC(=O)COc4ccccc4Cl)c3C)nc2c1,inactive: -1.58%
22,CS(=O)(=O)c1ncc(Cl)c(C(=O)Nc2c(C(=O)c3ccc(Cl)cc3)oc3ccccc23)n1,inactive: 0.69%
23,COc1ccc(CCNC(=O)c2ccc(Cn3c(SCC(=O)NCCC(C)C)nc4cc5c(cc4c3=O)OCO5)cc2)cc1OC,inactive: 4.96%
24,Cc1ccc(C2CC(=O)n3nc(-c4cccc(C)c4)nc3S2)cc1 (stereo unspecified),inactive: -1.87%

row,SMILES,"activity change, negative = cytotoxicity"
1,CN(C)c1ccc(CNC(=O)C2CCN(S(=O)(=O)c3ccc4[nH]c(=O)ccc4c3)CC2)cc1,inactive: -5.21%
2,CC(C)C(=O)Nc1nnc(SCc2cc(=O)n3ccccc3n2)s1,inactive: 0.249%
3,COc1cc(-c2ccno2)ccc1S(=O)(=O)N1CCN(c2ccccc2)CC1,inactive: -15.8%
4,Cc1ccc2nc(CN3CCN(S(=O)(=O)c4ccc(C)c(C)c4)CC3)oc2c1,inactive: 10.1%
5,CC(=O)c1c(C)n(-c2ccc(C)cc2)c2ccc(OC(=O)COc3ccccc3)cc12,inactive: -4.61%
6,CCOc1cccc(C(=O)N(Cc2ccc(F)cc2)Cc2ccco2)c1,inactive: 6.54%
7,Cc1ccc(N2C(=O)CCSC23C(=O)N(Cc2ccc(F)cc2)c2ccccc23)cc1 (stereo unspecified),inactive: -1.38%
8,Cc1ccc(N2C(=O)CS(=O)(=O)C23C(=O)N(Cc2ccc(Cl)cc2)c2ccccc23)cc1C (stereo unspecified),inactive: 9.48%
9,O=C1CC(c2ccc(F)cc2F)c2cc3c(cc2N1)OCO3 (stereo unspecified),inactive: 2.54%
10,COc1ccc(OC)c(NC(=O)Cn2c(=O)n(-c3ccc(Cl)cc3)c(=O)c3c(C)c(C)sc32)c1,inactive: -3.63%
11,CCOC(=O)c1c(NC(=O)COc2ccc(C(C)(C)C)cc2)sc2c1CCCC2,inactive: 5.9%
12,CCc1cccc(CC)c1NC(=O)Cn1nnc2sc3c(c2c1=O)CCCC3,inactive: -11.3%
13,Cc1ccc(NC(=O)c2c(C)nn(-c3ccccc3)c2-n2cccc2)c(Cl)c1,inactive: -28.7%
14,Cc1ccc2c(c1)N(C(=O)CCC(=O)NCc1cccs1)CC(C)O2 (stereo unspecified),inactive: -0.784%
15,COC(=O)c1ccccc1NC(=O)Cn1c(CCC(=O)O)ccc1-c1ccc(C)cc1,inactive: -10.4%
16,Cc1cccc(CC(=O)Nc2c(C(=O)Nc3cccc(F)c3)oc3ccccc23)c1,inactive: -6.88%
17,CCOC(=O)C1CCN(C(=O)Cn2ncc3c4ccccc4n(Cc4ccccc4)c3c2=O)CC1,inactive: -1.97%
18,CCc1ccc(NC(=O)CCCc2nnc3n(CCCOC)c(=O)c4sccc4n23)cc1,inactive: 10.2%
19,Cc1ccc(NC(=O)C(C)Sc2nc3c(c(=O)[nH]2)CCCC3)cc1Cl (stereo unspecified),inactive: -0.229%
20,CSc1cccc(NC(=O)CN2C(=O)CCc3cc(S(=O)(=O)N4CCCCC4)ccc32)c1,inactive: 0.646%
21,CCOc1ccc(CNC(=O)C2CCCN(c3nn4cc(-c5ccc(F)cc5)nc4s3)C2)cc1 (stereo unspecified),inactive: 13.7%
22,COc1ccc(-n2c(=O)c3c(c4cc(OC)ccc4n3C)n(CC(=O)N3CCCC3)c2=O)cc1,inactive: 12.7%
23,CCOc1ccc(/C=C/c2nc(C#N)c(NCCCN(C)C)o2)cc1,inactive: -23.8%
24,CCc1ccc2oc(-c3ccc(NC(=O)c4cccc(Cl)c4Cl)cc3)nc2c1,inactive: -13.9%

row,SMILES,"activity change, negative = cytotoxicity"
1,O=C(Cn1cnc2c(nc3n2CCCCC3)c1=O)Nc1cccc(C(F)(F)F)c1,inactive: -1.99%
2,COC(=O)c1ccccc1NC(=O)Cn1c(=O)n(CCCC(=O)NCc2ccccc2Cl)c(=O)c2ccccc21,inactive: 11.9%
3,O=C(COc1ccccc1Cl)N(Cc1cccc(F)c1)C1CCS(=O)(=O)C1 (stereo unspecified),inactive: 10.9%
4,CCOc1ccccc1NC(=O)CSc1ccc2nc(-c3ccccc3)cn2n1,inactive: -19.1%
5,Cc1cc(=O)n(Cc2c(F)cccc2Cl)c2c1c(C)nn2C,inactive: -0.267%
6,CCOC(=O)Cn1c(CN2CCN(c3ccc(OC)cc3)CC2)nc2c1c(=O)[nH]c(=O)n2C,inactive: 0.489%
7,COc1ccc(CCNC(=O)Cn2c(-c3ccc(F)cc3)cc(C(C)=O)c2C)cc1OC,inactive: -2.94%
8,CCOC(=O)C1CCN(C(=O)CSc2n[nH]c(-c3ccc(OC)cc3)n2)CC1,inactive: -4.31%
9,Cn1c(=O)n(C)c2cc(N3CCOCC3)c(NS(=O)(=O)c3ccc(Cl)cc3)cc21,inactive: -3.03%
10,Cc1ccc(-n2c(=O)c3c(cnn3C)n(CC(=O)Nc3cccc(C)c3)c2=O)cc1,inactive: 20.7%
11,COc1ccccc1N1CCN(C(=O)c2cc3c(-c4ccccc4F)nn(C)c3s2)CC1,inactive: -21.4%
12,COc1cc2ccccc2cc1C(=O)N1CCN(c2nc3c(F)cc(F)cc3s2)CC1,inactive: -0.0817%
13,CCCC(=O)Nc1cc(-c2nnc3c4ccccc4c(C)nn23)ccc1C,inactive: -2.6%
14,Cc1ccc(C)c(OC(=O)CSc2nnc(-c3cccs3)o2)c1,inactive: 3.12%
15,COc1ccc2c(c1)CC(C(=O)NCCc1ccc(S(N)(=O)=O)cc1)CO2 (stereo unspecified),inactive: 4.72%
16,Cc1ccc(Cn2cc(S(=O)(=O)c3ccc(Cl)cc3)c(=O)c3cc4c(cc32)OCO4)cc1,inactive: 0.49%
17,CC(=O)Nc1ccc(NC(=O)C(NS(=O)(=O)c2ccc(Br)s2)c2ccccc2)cc1 (stereo unspecified),inactive: 2.37%
18,COc1cc(NC(=O)Cn2nnnc2-c2ccccc2F)cc(OC)c1OC,inactive: -0.758%
19,CC(=O)N1CCc2cc(S(=O)(=O)NC(Cc3ccccc3)C(=O)NCc3ccccc3Cl)ccc21 (stereo unspecified),inactive: -15.9%
20,CCCc1ccc(OC(C)c2nc(-c3ccc(-n4cccc4)cc3)no2)cc1 (stereo unspecified),inactive: -9.25%
21,CCOc1ccc2nc(N(Cc3cccnc3)C(C)=O)sc2c1,inactive: 2.48%
22,O=C1CC(=O)Nc2cc(S(=O)(=O)Nc3ccc(F)cc3Cl)ccc2N1,inactive: -5.69%
23,Cc1ccc(OCCSc2nc3ccc(NC(=O)c4ccco4)cc3s2)cc1,inactive: 13.2%
24,COc1ccc(-c2cc3ccc(O)c(CN4CCCCC4C)c3oc2=O)cc1OC (stereo unspecified),inactive: -8.37%
